# Data as given in patent US12138316B2, “Anti-B7H3 antibody-drug conjugate and use thereof” (Duality Biologics (Suzhou) Co., Ltd., priority 2023, dated 2024).
# T1: human B7H3 (Homo sapiens, UniProt Q5ZPR3)
# T1 construct: MCF-7 cells expressing human full-length B7H3; host or cells: MCF-7
# T1 sequence (Q5ZPR3 29-534): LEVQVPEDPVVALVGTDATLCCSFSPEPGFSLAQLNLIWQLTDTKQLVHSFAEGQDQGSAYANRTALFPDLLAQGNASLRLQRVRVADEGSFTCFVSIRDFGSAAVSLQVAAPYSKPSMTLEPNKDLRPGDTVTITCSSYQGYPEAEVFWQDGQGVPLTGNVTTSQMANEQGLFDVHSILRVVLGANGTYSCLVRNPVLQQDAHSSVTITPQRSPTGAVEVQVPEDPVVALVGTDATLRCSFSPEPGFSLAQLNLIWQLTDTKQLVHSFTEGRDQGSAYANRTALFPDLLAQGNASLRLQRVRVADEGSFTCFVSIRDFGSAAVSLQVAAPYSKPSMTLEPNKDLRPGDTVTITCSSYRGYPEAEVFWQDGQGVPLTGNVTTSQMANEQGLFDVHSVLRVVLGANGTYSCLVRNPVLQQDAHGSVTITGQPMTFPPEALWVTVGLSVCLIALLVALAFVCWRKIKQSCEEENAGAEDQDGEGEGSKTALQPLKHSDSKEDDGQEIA
# T2: human 4IgB7H3 (Homo sapiens, UniProt Q5ZPR3)
# T2 construct: Uniprot ID: Q5ZPR3, amino acids 29-461; made in house; host or cells: Expi293F
# T2 sequence (Q5ZPR3 29-461): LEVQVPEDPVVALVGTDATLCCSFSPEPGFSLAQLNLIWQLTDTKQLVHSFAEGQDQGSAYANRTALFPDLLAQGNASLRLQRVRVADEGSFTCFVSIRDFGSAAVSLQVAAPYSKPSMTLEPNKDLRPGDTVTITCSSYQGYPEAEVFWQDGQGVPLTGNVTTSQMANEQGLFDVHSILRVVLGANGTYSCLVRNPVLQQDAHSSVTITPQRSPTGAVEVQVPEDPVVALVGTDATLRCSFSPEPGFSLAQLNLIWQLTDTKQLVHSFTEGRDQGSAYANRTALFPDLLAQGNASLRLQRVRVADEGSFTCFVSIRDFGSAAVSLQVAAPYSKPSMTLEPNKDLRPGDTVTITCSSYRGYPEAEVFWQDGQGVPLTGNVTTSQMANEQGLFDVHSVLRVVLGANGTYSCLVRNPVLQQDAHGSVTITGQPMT
# T3: human 2IgB7H3 (Homo sapiens, UniProt Q5ZPR3)
# T3 construct: His tag; purchased ACROBiosystems B73-H52E2
# T3 sequence (Q5ZPR3 29-316 isoform Q5ZPR3-2 limits assumed): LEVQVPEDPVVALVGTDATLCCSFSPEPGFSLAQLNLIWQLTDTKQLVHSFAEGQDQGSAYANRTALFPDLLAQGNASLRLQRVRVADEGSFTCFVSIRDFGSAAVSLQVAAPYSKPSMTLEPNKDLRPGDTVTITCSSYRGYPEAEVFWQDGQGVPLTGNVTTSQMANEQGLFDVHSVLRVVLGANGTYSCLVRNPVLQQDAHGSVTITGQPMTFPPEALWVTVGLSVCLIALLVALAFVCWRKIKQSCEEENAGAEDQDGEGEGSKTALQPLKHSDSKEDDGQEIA
# B1: W301088-1.145.16-xIgG1KV320: chimeric anti-B7H3 human IgG1 LALA antibody, heavy chain SEQ ID NO: 14, light chain SEQ ID NO: 15 (antibody)
# heavy: DVQLQESGPGLVKPSQSLSLTCTVTDYSITGDYAWNWIRQFPGNKLEWMGYISYSGSTSYNPSLQSRISITRDTSKNQFFLQLNSVTSEDTATYFCARSLGRRWYFVVWGAGTTVTVSAASTKGPSVFPLAPSSKSTSGGTAALGCLVKDYFPEPVTVSWNSGALTSGVHTFPAVLQSSGLYSLSSVVTVPSSSLGTQTYICNVNHKPSNTKVDKRV[not shown - human IgG1 Fc with changes]
# light: DIVMTQSPSSLAMSVGQKVTMSCKSSQSLLNSSNQKNYLAWYQQKPGQSPKLLIYFASTRESGVPDRFIGSGSGTDFTLTISSVQAEDLTDYFCQQHYSAPWTFGGGTKLEIKRTVAAPSVFIFPPSDEQLKSGTASVVCLLNNFYPREAKVQWKVDNALQSGNSQESVTEQDSKDSTYSLSSTLTLSKADYEKHKVYACEVTHQGLSSPVTKSFNRGEC
# What was measured:
# human B7H3 = biological target: T1, human B7H3; experiment: FACS binding to human B7H3-expressing cells MCF-7
# Description: (§1) FACS was used to detect the binding of antibodies to human B7H3. This method allows quantitative analysis and identification of specific molecules expressed on the surface of living cells. Unlabeled cells were used as a control to set a threshold before the assay, and the percentage change for each group that exceeded the fluorescence intensity threshold was analyzed. MCF-7 cells expressing human full-length B7H3 (1×10^5 cells/well) were incubated with various concentrations of antibodies (3.16-fold serially diluted with 1×DPBS/1% BSA from 50 nM to 0.0005 nM) in a volume of 100 μL/well in a refrigerator set to 4° C. for 1 h. Anti-human B7H3 reference antibody enoblituzumab (MacroGeneics) was used as a positive control. Human IgG1 isotype antibody was used as a negative control. After washing the cells with 1×DPBS/1% BSA, Alexa 647 goat anti-human antibody (diluted in a 1:500 ratio in 1×DPBS/1% BSA) was added. The cells were incubated in a refrigerator set to 4° C. for 0.5 h in the dark. The mean fluorescence intensity (MFI) of the cells was measured by a flow cytometry and analyzed by FlowJo. EC50 values were calculated by four-parameter non-linear regression analysis using GraphPad Prism 7 software.
# cynomolgus monkey B7H3 [1] = experiment: FACS binding to cynomolgus monkey B7H3-transfected stable cell pool
# Description: as §1, with “to cynomolgus monkey” for “to human”, “B7H3. FlpinCHO” for “B7H3. This method allows quantitative analysis and identification of specific molecules expressed on the surface of living cells. Unlabeled”, “were transfected with cynomolgus monkey B7H3 (W3XX088-FlpinCHO.cProl.pool) (1×10^5 cells/well),” for “were used as a control to set a threshold before the assay,”, “the transfected” for “the percentage change for each group that exceeded the fluorescence intensity threshold was analyzed. MCF-7”, “cells” for “cells expressing human full-length B7H3 (1×10^5 cells/well)”
# human 4IgB7H3 = biological target: T2, human 4IgB7H3; experiment: Binding affinity for human 4IgB7H3 (SPR)
# Description: (§2) The affinity of antibodies for human 4IgB7H3 was determined using surface plasmon resonance (SPR). The affinity of antibodies for human 4IgB7H3 was determined by Biacore 8K. An activator was prepared by mixing 400 mM EDC and 100 mM NHS (GE) immediately prior to injection into the channel. The CM5 sensor chip was activated for 420 seconds with the activator. Goat anti-human Fc IgG (30 μg/mL in 10 mM NaAc, pH 4.5) was then injected into the channel at a flow rate of 10 μL/min for 420 seconds. The chip was deactivated by 1 M ethanolamine hydrochloric acid. The antibodies diluted in running buffer (1×HBS-EP+) were injected into the channel at a flow rate of 10 μL/min for 30 seconds. Seven concentrations (100 nM, 50 nM, 25 nM, 12.5 nM, 6.25 nM, 2.125 nM, and 1.563 nM) of analyte human 4IgB7H3 were injected sequentially into the channel at a flow rate of 30 μL/min for an association phase of 180 seconds, followed by dissociation of 3600 seconds. Glycine (10 mM, pH 1.5) was injected as regeneration buffer after the dissociation phase.
# The sensorgrams for the reference channel and the buffer channel were subtracted from the test sensorgrams. The experimental data were fitted with a 1:1 binding model. The molecular weight of the human 4IgB7H3 used in the calculation was 47.8 kDa.
# human 2IgB7H3 = biological target: T3, human 2IgB7H3; experiment: Binding affinity for human 2IgB7H3 (SPR)
# Description: The affinity of antibodies for human 2IgB7H3 was determined using surface plasmon resonance (SPR). The affinity of antibodies for human 2IgB7H3 was determined by Biacore 8K. An activator was prepared by mixing 400 mM EDC and 100 mM NHS (GE) immediately prior to injection into the channel. The CM5 sensor chip was activated for 420 seconds with the activator. Goat anti-human Fc IgG (30 μg/mL in 10 mM NaAc, pH 4.5) was then injected into the channel at a flow rate of 10 μL/min for 420 seconds. The chip was deactivated by 1 M ethanolamine hydrochloric acid. The antibodies diluted in running buffer (1×HBS-EP+) were injected into the channel at a flow rate of 10 μL/min for 30 seconds. Seven concentrations (500 nM, 250 nM, 125 nM, 62.5 nM, 31.25 nM, 15.625 nM, and 7.813 nM) of analyte human 2IgB7H3 were injected sequentially into the channel at a flow rate of 30 μL/min for an association phase of 120 seconds, followed by dissociation of 300 seconds. Glycine (10 mM, pH 1.5) was injected as regeneration buffer after the dissociation phase.
# The sensorgrams for the reference channel and the buffer channel were subtracted from the test sensorgrams. The experimental data were fitted with a 1:1 binding model. The molecular weight of the human 2IgB7H3 used in the calculation was 25.2 kDa.
# cynomolgus monkey B7H3 [2] = experiment: Binding affinity for cynomolgus monkey B7H3 (SPR)
# Description: as §2, with “cynomolgus monkey B7H3” for “human 4IgB7H3”, “Seven concentrations (100 nM, 50 nM, 25 nM, 12.5 nM, 6.25 nM, 2.125 nM, and 1.563 nM) of analyte human 4IgB7H3 were injected sequentially into the channel at a flow rate of 30 μL/min for an association phase of 180 seconds, followed by dissociation of 3600 seconds.” left out
# The sensorgrams for the reference channel and the buffer channel were subtracted from the test sensorgrams. The experimental data for 6 analyte concentrations (50 nM, 25 nM, 12.5 nM, 6.25 nM, 3.125 nM, and 1.563 nM) were fitted with a 1:1 binding model. The molecular weight of the cynomolgus monkey B7H3 used in the calculation was 49 kDa.
# [3] = system: human B7H3-expressing cells MCF-7; experiment: Internalization test (HCS) in MCF-7 cells; type: cell-based
# Description: Antibody internalization was determined by operetta CLS (PerkinElmer), a high-content imaging and analysis system that can collect and analyze images of samples at high speed and high sensitivity. MCF-7 cells expressing human full-length B7H3 (1.5×10^4 cells/well) were seeded into a 96-well clear bottom black plate pre-coated with 8 μg/mL poly-D-lysine. After incubation in an incubator set to 37° C., 5% CO2 overnight, various concentrations of the antibodies (3.16-fold serially diluted with 1×DPBS/1% BSA from 50 nM to 0.0005 nM) were incubated in a volume of 100 μL/well in a refrigerator set to 4° C. for 2 h. Anti-human B7H3 reference antibody enoblituzumab (MacroGeneics) was used as a positive control. Human IgG1 isotype antibody was used as a negative control. After washing the cells with 1×DPBS/1% BSA, Alexa 647 goat anti-human antibody (diluted in a 1:500 ratio in 1×DPBS/1% BSA) was added. The cells were incubated in a refrigerator set to 4° C. for 1 h in the dark. The cells were then washed once and resuspended in 1×DPBS/1% BSA at 37° C. for 2 h. […] The mean fluorescence intensity (MFI) of the cells was measured and analyzed by operetta CLS. EC50 values were calculated by four-parameter non-linear regression analysis using GraphPad Prism 7 software.
molecule,measurement,setting,value
B1,Maximum MFI,human B7H3,19800
same,Maximum MFI,cynomolgus monkey B7H3 [1],67100
same,ka,human 4IgB7H3,657000 M⁻¹ s⁻¹
same,kd (dissociation rate constant),human 4IgB7H3,3.39e-05 s⁻¹
same,ka,human 2IgB7H3,235000 M⁻¹ s⁻¹
same,kd (dissociation rate constant),human 2IgB7H3,0.0136 s⁻¹
same,ka,cynomolgus monkey B7H3 [2],521000 M⁻¹ s⁻¹
same,kd (dissociation rate constant),cynomolgus monkey B7H3 [2],2.94e-05 s⁻¹
same,Antibody internalization Maximum MFI,[3],57180
